Measured values taken from ChEMBL document CHEMBL1201862, “PubChem BioAssay data set” (2004).
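Grown in 96-well plates, cells were treated for 48 hours with each compound at five concentrations. Insufficient inhibition: endpoint recorded as highest concentration tested. GI50: concentration for 50% inhibition of growth.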 Calls of active or inactive are those of the source. Cut-off read from the data, not from the text of the source: active = GI50 up to about 1.1 µM and inactive = higher.

Tested on: NCI-H322M
Test: NCI anticancer screen, dose series, 48 h

How did the GI50 turn out when `COc1c(C)c(OC)c2c(c1O)[C@@H]1[C@@H]3Cc4c(OC)c(C)c(OC)c(O)c4[C@H](CNC(=O)c4ccc5ccccc5n4)N3[C@@H](C#N)[C@H](C2)N1C` was run?
Its GI50 is active: 0.000156 µM.

How did the GI50 turn out when `CCC(O)(Cc1ccc(OC)cc1)c1ccc(OC)cc1` (stereo unspecified) was run?
Its GI50 is inactive: > 100 µM.

With `O=C(NCCCCN(CCCNC(=O)C(F)(F)F)Cc1ccccc1)C(F)(F)F` as the molecule, how does the GI50 read?
Its GI50 is inactive: > 100 µM.

With `S=C(Nc1ccc(Br)cn1)NC12CC3CC(CC(C3)C1)C2` as the molecule, how does the GI50 read?
The GI50 was inactive: 15.5 µM.

`C=C(C)C1CC2C(C)=C(OC(C)=O)C1n1c(=O)c3cc4ccccc4cc3c(=O)n12` (stereo unspecified) was tested. Which GI50 did it give?
Its GI50 is inactive: > 65.5 µM.

Which GI50 does the source give for `COC1OC(COS(=O)(=O)c2ccc(C)cc2)C(O)C(OS(=O)(=O)c2ccc(C)cc2)C1OS(=O)(=O)c1ccc(C)cc1` (stereo unspecified) here?
The GI50 was inactive: > 100 µM.

How did the GI50 turn out when `CO/[N+]([O-])=C\C(=O)N/C=C/C(=O)O` was run?
Its GI50 is inactive: > 100 µM.

With `CC(=O)/C=C/C1=C(C)CCCC1(C)CC(C)C` (stereo unspecified) as the molecule, how does the GI50 read?
The GI50 was inactive: > 100 µM.

For `Cc1cc(N)c2cc(NC(=O)Nc3ccc4nc(C)cc(N)c4c3)ccc2n1`, which GI50 is on record?
Its GI50 is inactive: > 100 µM.

How did the GI50 turn out when `O=c1/c(=C/c2cccc3ccccc23)sc2nc3ccccc3n12` was run?
Its GI50 is inactive: > 100 µM.

How did the GI50 turn out when `CC1=C(/C=C/Cl)CC(Cl)C(C)(Cl)C1` (stereo unspecified) was run?
The GI50 was inactive: > 100 µM.

How did the GI50 turn out when `O=[N+]([O-])/C(C(Cl)=C(Cl)Cl)=C(/Cl)SCc1ccccc1` was run?
Its GI50 is inactive: 20.9 µM.

`CN(CCCNC(=O)c1nn(-c2ccccc2)c2c1ccc1ccccc12)CCCNC(=O)c1nn(-c2ccccc2)c2c1ccc1ccccc12` was tested. Which GI50 did it give?
Its GI50 is inactive: 1.88 µM.

For `O=C1c2ccccc2C2(O)Nc3c(ccc4ccccc34)C12O` (stereo unspecified), which GI50 is on record?
The GI50 was inactive: > 100 µM.

With `COc1ccc(CC(COS(=O)(=O)c2ccc(C)cc2)NS(=O)(=O)c2ccc(C)cc2)cc1` (stereo unspecified) as the molecule, how does the GI50 read?
The GI50 was inactive: 16.1 µM.

`CCCCCCCCCCCCCCCCCCNc1ccn(C2OC(CO)C(OP(=O)(O)OCC3CCC(n4ccc(N)nc4=O)O3)C2O)c(=O)n1` (stereo unspecified) was tested. Which GI50 did it give?
The GI50 was inactive: > 100 µM.

How did the GI50 turn out when `Cc1c(-c2nc(N)nc(C3CC3)c2C)nc(N)nc1C1CC1` was run?
The GI50 was inactive: > 100 µM.

`O=C1C=CC(=O)C(CNc2ccc(C(=O)OCc3ccccc3)cc2)=C1` was tested. Which GI50 did it give?
The GI50 was inactive: 25.2 µM.

With `CCN(CC)C(=S)SNCCc1ccc(S(N)(=O)=O)cc1` as the molecule, how does the GI50 read?
The GI50 was inactive: > 52.7 µM.

For `O=C1C(Cl)C2(CC(/C=C/c3ccccc3Cl)=NN2c2cccc(S(=O)(=O)O)c2)N1c1nc2ccccc2s1` (stereo unspecified), which GI50 is on record?
Its GI50 is inactive: > 100 µM.

For `CC(C)c1c(P(=O)(c2ccccc2)c2ccccc2)n(C)c2ccccc12`, which GI50 is on record?
The GI50 was inactive: 47.1 µM.

For `Cn1cc[n+](-c2cc(=O)n(C)c(=O)[n-]2)c1`, which GI50 is on record?
The GI50 was inactive: > 100 µM.

Which GI50 does the source give for `COc1ccc(C2=Nc3ccccc3NC(=O)C2)cc1` here?
The GI50 was inactive: 85.1 µM.

How did the GI50 turn out when `O=[N+]([O-])c1ccc(NC2OCC(O)C(O)C2O)cc1` (stereo unspecified) was run?
Its GI50 is inactive: > 100 µM.

How did the GI50 turn out when `c1ccc(CN2CCCCC(Sc3ccccc3)CC2)cc1` (stereo unspecified) was run?
The GI50 was inactive: > 100 µM.

`N#CC1=C(S)N(C2OC(CO)C(O)C(O)C2O)C(c2ccccc2)=CC1c1ccco1` (stereo unspecified) was tested. Which GI50 did it give?
The GI50 was inactive: 34.1 µM.

How did the GI50 turn out when `C=C(Br)C/N=C/N(C)C` was run?
The GI50 was inactive: > 100 µM.

How did the GI50 turn out when `CCCCCCSCC/C(C)=N\OC` was run?
The GI50 was inactive: > 100 µM.

`COc1ccc(C2=CN3CCC[C@H]3C=C2c2cc(O)c(OC)c(OC)c2)cc1OC` was tested. Which GI50 did it give?
Its GI50 is active: 0.00405 µM.

Which GI50 does the source give for `COC(=O)c1ccccc1C1CN=NC12Cc1cc(C)ccc1C2=O` (stereo unspecified) here?
The GI50 was inactive: > 100 µM.

`COc1ccc2c(c1)C1(C=N2)CCN(C(C)=O)CC1` was tested. Which GI50 did it give?
The GI50 was inactive: > 100 µM.

With `CC1=C2C(=O)c3ccccc3C(=O)[C@H]2C[C@@H](N2CCCCCC2=O)O1` as the molecule, how does the GI50 read?
Its GI50 is inactive: 22.6 µM.

For `NC(Cc1ccc(B(O)O)cc1)C(=O)NC(CO)CO` (stereo unspecified), which GI50 is on record?
Its GI50 is inactive: > 100 µM.

How did the GI50 turn out when `CCCCCCCCCCCC1=C(O)C(=O)C(CC2=C(O)C(=O)C(CCCCCCCCCCC)=C(O)C2=O)=C(O)C1=O` was run?
Its GI50 is inactive: > 100 µM.

How did the GI50 turn out when `Cc1ccc(S(=O)(=O)N/N=C/c2c(O)ccc3ccccc23)cc1` was run?
The GI50 was inactive: 27.4 µM.

`CC12CCC(O)CC1CCC1C2CCC2(C)C(C(=O)CC(O)C(F)(F)F)CCC12` (stereo unspecified) was tested. Which GI50 did it give?
Its GI50 is inactive: 21.9 µM.

For `O=C1C=CC(=O)c2c1ccc1c3ccccc3n(Cc3ccccc3)c21`, which GI50 is on record?
Its GI50 is inactive: > 100 µM.

For `O=C1C=C(Nc2ccc(Cl)cc2C(=O)c2ccccc2)c2ccccc2C1=O`, which GI50 is on record?
Its GI50 is inactive: > 100 µM.

With `CCN(CC)CCn1c(=O)c2ccccc2n2c3c(=O)n(C)c(=O)n(C)c3nc12` as the molecule, how does the GI50 read?
The GI50 was inactive: 2.54 µM.

For `O=c1oc2c(ccc3occc32)c(N2CCCCC2)c1-c1ccccc1`, which GI50 is on record?
The GI50 was inactive: > 100 µM.

How did the GI50 turn out when `CC[C@@]12C=CC(=S)N(CCSc3ccccc3)[C@@H]1c1c(n(S(=O)(=O)c3ccc(OC)cc3)c3ccccc13)CC2` was run?
The GI50 was inactive: > 100 µM.

Which GI50 does the source give for `CNC(c1ccncc1)C(NC)c1ccncc1` (stereo unspecified) here?
The GI50 was inactive: > 100 µM.

For `CC/C(CC(=O)CCC(=O)Nc1ccccc1[N+](=O)[O-])=N/NC(=O)C[n+]1ccccc1`, which GI50 is on record?
The GI50 was inactive: > 100 µM.

How did the GI50 turn out when `COc1cc(/C=C(\C#N)c2ccccn2)cc(Br)c1O` was run?
Its GI50 is inactive: > 100 µM.

For `COc1ccccc1/C=N/N=C(\N)NO`, which GI50 is on record?
Its GI50 is inactive: 16.6 µM.

Which GI50 does the source give for `CC(C)(C)C1(COC(=O)c2ccc(N)cc2)COC1` here?
The GI50 was inactive: > 100 µM.
